Variants at the floor of the assay are shown more often than the library holds them.
B1: TPR 5TU (parent)
chain: GGAUCUUCUCGAUCUAACAAAAAAGACAAAUCUGCCACAAAGCUUGAGAGCAUCUUCGGAUGCAGAGGCGGCAGCCUUCGGUGGCGCGAUAGCGCCAACGUUCUCAACUAUGACACGCAAAACGCGUGCUCCGUUGAAUGGAGUUUAUCAUG

Variants of: B1
Assay: polymerase ribozyme fitness, log enrichment relative to wild type (log ratio); higher = more active; in vitro selection for triplet polymerase activity
How it was run: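 Fitness measures genotype enrichment against wild-type enrichment on a logarithmic scale, with inverse-variance-weighted averaging of replicates. The logarithm is base 2, and genotypes were kept only with ≥10 input reads and ≥1 read per output in Illumina sequencing. The sequenced libraries came from one triplicate in vitro selection round, including frozen incubation at −7 °C, of PCR-built, transcribed mutant libraries of each subunit of a heterodimeric triplet polymerase ribozyme.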

Row | Variant | polymerase ribozyme fitness (log ratio)
1 | G42U A60G C72U C93U | ≤ -4.2
2 | G42U A73G U78G C93A U146A | ≤ -4.2
3 | G42U A91G G128U G133A | ≤ -4.2
4 | G42U A110G A113C C123A | ≤ -4.2
5 | G42U A122U | ≤ -4.2
6 | G42U C54U C95G | ≤ -4.2
7 | G42U C54U G74U C96A U130G | ≤ -4.2
8 | G42U C63A A64C C95A U146A C149A | ≤ -4.2
9 | G42U C85U C125A G128A A142U | ≤ -4.2
10 | G42U C95A | ≤ -4.2
11 | G42U C95U C99U U104G | ≤ -4.2
12 | G42U C103A U104A A107U | ≤ -4.2
13 | G42U C108U C125U A138U U148A | -4.13
14 | G42U G50C C99U U127G | ≤ -4.2
15 | G42U G59U G92U | ≤ -4.2
16 | G42U G65A C95U U139G | ≤ -4.2
17 | G42U G68A A91C | ≤ -4.2
18 | G42U G68C C96U U104A A106C U139A | ≤ -4.2
19 | G42U G70C C79G C85U C103A G112A G141C | ≤ -4.2
20 | G42U G74C C85U G136A U144G | ≤ -4.2
21 | G42U G81C C125A | ≤ -4.2
22 | G42U U44A C93U U111C G124C | ≤ -4.2
23 | G42U U56A C75G A91U G126A U144A | ≤ -4.2
24 | C43A A47C G68A G84U A122C | ≤ -4.2

Row | Variant | polymerase ribozyme fitness (log ratio)
25 | C43A A47C G94C C108U A147G C149U | ≤ -4.2
26 | C43A A47C U53A A91G | ≤ -4.2
27 | C43A A52C C75U U90G C95U C96G C114G U144G | ≤ -4.2
28 | C43A A52C G94A | ≤ -4.2
29 | C43A A73G C87G C125G C132A G141C C149A | ≤ -4.2
30 | C43A A73G C93G C96U U101C G126U | ≤ -4.2
31 | C43A C51G C93A A106C A107G G143U | ≤ -4.2
32 | C43A C63U C96A U127G | ≤ -4.2
33 | C43A C75U A106U C108U C123G G141A | ≤ -4.2
34 | C43A C75U C76G C85U A113U C131G A138C | ≤ -4.2
35 | C43A C87U A119C A138C | ≤ -4.2
36 | C43A G59C C95A C103G C123U | ≤ -4.2
37 | C43A G68A C95A A98U C125G | ≤ -4.2
38 | C43A G88A | ≤ -4.2
39 | C43A U44A G92U A98C G140C C149G | ≤ -4.2
40 | C43A U53A A60C U61A C76A C87U C95G U146C U148G | ≤ -4.2
41 | C43A U53A U55A G74A C76A G88U A142G | ≤ -4.2
42 | C43A U55A G81U A98U G112C G117A G133C | ≤ -4.2
43 | C43A U55G U56A C57U G83U G84C U102C A115U C116G G117C | ≤ -4.2
44 | C43A U77G | ≤ -4.2
45 | C43A U139A G140U U145A | ≤ -4.2
46 | C43G A47C U55C C85A G86A U102A G152C | ≤ -4.2
47 | C43G A52G A64U A91U A122C | ≤ -4.2
48 | C43G A73C G86A C93G C96A | ≤ -4.2

Row | Variant | polymerase ribozyme fitness (log ratio)
49 | C43G C54A C75A | ≤ -4.2
50 | C43G C54U U78A | ≤ -4.2
51 | C43G C69A | ≤ -4.2
52 | C43G C105A C123G U148A | ≤ -4.2
53 | C43G G67C C69U U77A A97G C118U A119G | ≤ -4.2
54 | C43G G68A G71A A122G G128C U130C | ≤ -4.2
55 | C43G G83A G88A C149A | ≤ -4.2
56 | C43G G84A C95A A106U C118G G143U | ≤ -4.2
57 | C43G G84U A98C U102A G117U C118A | ≤ -4.2
58 | C43G U44G C87G C116G | ≤ -4.2
59 | C43G U45G G50A C118U U145A | ≤ -4.2
60 | C43G U53A G68A C75A C93A U104A | ≤ -4.2
61 | C43G U53A G84A C96A C116U | ≤ -4.2
62 | C43G U53A G94C C96U A98C C114G A137C | ≤ -4.2
63 | C43G U55A A89U A115U U139C G140U A150C | ≤ -4.2
64 | C43G U56A G80A G83U C95A C118A | ≤ -4.2
65 | C43G U61G A73U | ≤ -4.2
66 | C43G U82C G83A U111G | ≤ -4.2
67 | C43G U82G A89U | ≤ -4.2
68 | C43U A47C C54A G86A G94U | ≤ -4.2
69 | C43U A52C A91C C96G U127C | ≤ -4.2
70 | C43U A52C U56A C87A A113C | ≤ -4.2
71 | C43U A52U U55G C79A G140C | ≤ -4.2
72 | C43U A64C A97G C105U C108A | ≤ -4.2

Row | Variant | polymerase ribozyme fitness (log ratio)
73 | C43U A64C G92A G126C | ≤ -4.2
74 | C43U A73C G81A C93G | ≤ -4.2
75 | C43U A73G C76U C87G | ≤ -4.2
76 | C43U A89U A91C A97G | ≤ -4.2
77 | C43U A91C | ≤ -4.2
78 | C43U A91C C99G C114G | ≤ -4.2
79 | C43U A91U C95G A98U A107U G141A | ≤ -4.2
80 | C43U C54A C93A U134A | ≤ -4.2
81 | C43U C54U U56G U78C C85G C93G G133A G136U G140U | ≤ -4.2
82 | C43U C57G G70A A89G C93U | ≤ -4.2
83 | C43U C57U | -3.79
84 | C43U C69U U77C C85G C96A A98U C105A | ≤ -4.2
85 | C43U C75A C79U G86U C87U G117U A150C | ≤ -4.2
86 | C43U C85U | ≤ -4.2
87 | C43U C87G A137G | ≤ -4.2
88 | C43U C93U A106U | ≤ -4.2
89 | C43U C93U C108U A122U G143A | ≤ -4.2
90 | C43U C96A | ≤ -4.2
91 | C43U C96U | ≤ -4.2
92 | C43U G46A A66U C76G G83A A110U | ≤ -4.2
93 | C43U G50C A66U G136U | ≤ -4.2
94 | C43U G50U U109A A150U | ≤ -4.2
95 | C43U G58A U90C C132A G143U | ≤ -4.2
96 | C43U G58C C95A U102C C103G C105G A110U | ≤ -4.2

Row | Variant | polymerase ribozyme fitness (log ratio)
97 | C43U G58U C93U | ≤ -4.2
98 | C43U G59A A110G | ≤ -4.2
99 | C43U G59A C96A G117A A121U G126U U139C | ≤ -4.2
100 | C43U G65U G71U C118G A137U U151C | ≤ -4.2
101 | C43U G67C G86A | ≤ -4.2
102 | C43U G67U G71C U148C A150U | ≤ -4.2
103 | C43U G68A G86U | ≤ -4.2
104 | C43U G70A C87A | ≤ -4.2
105 | C43U G70A C93A C116U A119G G140U | ≤ -4.2
106 | C43U G74U C96U G141A | ≤ -4.2
107 | C43U G86U G94C C103A C108G C123A U127A | ≤ -4.2
108 | C43U G88C C116A G143A | ≤ -4.2
109 | C43U G124U | ≤ -4.2
110 | C43U U44A A106C C116A C131A | ≤ -4.2
111 | C43U U44G U45A C69U C85G G141A | ≤ -4.2
112 | C43U U55C G94A C105U A115U C125A | ≤ -4.2
113 | C43U U56A C72A C85A | ≤ -4.2
114 | C43U U61C A64C C72A A122U A138U U146G | ≤ -4.2
115 | C43U U90G A91G C93U U145G | ≤ -4.2
116 | C43U U144G | ≤ -4.2
117 | U44A A47C C69A A89C G92A A110U C118G | ≤ -4.2
118 | U44A A47G G86U | ≤ -4.2
119 | U44A A47U G80C C93G G141C | ≤ -4.2
120 | U44A A49U U78G G84U A107U | ≤ -4.2

Row | Variant | polymerase ribozyme fitness (log ratio)
121 | U44A A52C A66C A73C C87G C95U A115G A121U | ≤ -4.2
122 | U44A A52C C54A G92A G141C | ≤ -4.2
123 | U44A A52G U55A A66C C76G G84U U130G | ≤ -4.2
124 | U44A A52U C63U C75A A91C C103U | ≤ -4.2
125 | U44A A60G G83A C105G G128U A137G | ≤ -4.2
126 | U44A A60G G136A | ≤ -4.2
127 | U44A A66G G68C | ≤ -4.2
128 | U44A A66G G80C | ≤ -4.2
129 | U44A A66G G128A U146C | ≤ -4.2
130 | U44A A73G G83U C129U C132U | ≤ -4.2
131 | U44A A98G U101A G112C | ≤ -4.2
132 | U44A C51U G62C C87G U104G C105G A106U A122C | ≤ -4.2
133 | U44A C54A G92U A107C | ≤ -4.2
134 | U44A C54U U101G G140U | ≤ -4.2
135 | U44A C57A G128A U139A | ≤ -4.2
136 | U44A C63G C85U C103A | ≤ -4.2
137 | U44A C69G U78G G86A A142C | ≤ -4.2
138 | U44A C72U A73G G86U A138C | ≤ -4.2
139 | U44A C75G C85U U134G A138C | ≤ -4.2
140 | U44A C76G A106C A110G U135C | ≤ -4.2
141 | U44A C85U | -4.17
142 | U44A C87A C116G C123G C131G G136U G141U | ≤ -4.2
143 | U44A C129G G141U | ≤ -4.2
144 | U44A G46C C75G U102A A120U U130G | -3.99

Row | Variant | polymerase ribozyme fitness (log ratio)
145 | U44A G48C C87A A115U C125A | ≤ -4.2
146 | U44A G50A C96A G136U C149A | ≤ -4.2
147 | U44A G50C C63A G92U C123A | ≤ -4.2
148 | U44A G58A C69G A150C | ≤ -4.2
149 | U44A G58A C93U C96G A97G A98U A119G U144C A150U | ≤ -4.2
150 | U44A G58C A91G A115C | ≤ -4.2
151 | U44A G59C G94C C103G G143U | ≤ -4.2
152 | U44A G62U G80C G140C | ≤ -4.2
153 | U44A G67A C99G | ≤ -4.2
154 | U44A G80A C93U C95U | ≤ -4.2
155 | U44A G83C | ≤ -4.2
156 | U44A G83U A98U | ≤ -4.2
157 | U44A G136U | ≤ -4.2
158 | U44A U45A C76A G86A C87G C118U A121U | ≤ -4.2
159 | U44A U45C A52G C96U A115U | ≤ -4.2
160 | U44A U45G C57A G68U U90A U130A U148A | ≤ -4.2
161 | U44A U53A C57U U77A U78A G84U C114U A122C C123A C125A U146C | ≤ -4.2
162 | U44A U53A C79G C85G A119G U135G | ≤ -4.2
163 | U44A U55A C63G C85U C87G G92U | ≤ -4.2
164 | U44A U55A C85U C108U G126C | ≤ -4.2
165 | U44A U55A G74U | ≤ -4.2
166 | U44A U55G C87A | ≤ -4.2
167 | U44A U55G G71A A91G U146C | ≤ -4.2

Reference: the RNAGym collection of RNA variant scans (doi:10.1073/pnas.2313332121)
